Assay results published in PubChem BioAssay AID1159614 (National Center for Advancing Translational Sciences (NCATS), 2016).
Out of some 45,000 compounds screened, about 65 (0.1%) were called active. Calls follow the shape of the dose curve; as a rule, active = well fitted activation curve with a large enough effect; inconclusive = small, poorly fitted or top-dose-only effect; inactive = no such curve, though single readings can be large or run the other way. The list shows a part of the results.

Molecular target: Galactocerebrosidase (Homo sapiens) (UniProt P54803)
UniProt P54803, sequence (P54803 whole entry, looked up): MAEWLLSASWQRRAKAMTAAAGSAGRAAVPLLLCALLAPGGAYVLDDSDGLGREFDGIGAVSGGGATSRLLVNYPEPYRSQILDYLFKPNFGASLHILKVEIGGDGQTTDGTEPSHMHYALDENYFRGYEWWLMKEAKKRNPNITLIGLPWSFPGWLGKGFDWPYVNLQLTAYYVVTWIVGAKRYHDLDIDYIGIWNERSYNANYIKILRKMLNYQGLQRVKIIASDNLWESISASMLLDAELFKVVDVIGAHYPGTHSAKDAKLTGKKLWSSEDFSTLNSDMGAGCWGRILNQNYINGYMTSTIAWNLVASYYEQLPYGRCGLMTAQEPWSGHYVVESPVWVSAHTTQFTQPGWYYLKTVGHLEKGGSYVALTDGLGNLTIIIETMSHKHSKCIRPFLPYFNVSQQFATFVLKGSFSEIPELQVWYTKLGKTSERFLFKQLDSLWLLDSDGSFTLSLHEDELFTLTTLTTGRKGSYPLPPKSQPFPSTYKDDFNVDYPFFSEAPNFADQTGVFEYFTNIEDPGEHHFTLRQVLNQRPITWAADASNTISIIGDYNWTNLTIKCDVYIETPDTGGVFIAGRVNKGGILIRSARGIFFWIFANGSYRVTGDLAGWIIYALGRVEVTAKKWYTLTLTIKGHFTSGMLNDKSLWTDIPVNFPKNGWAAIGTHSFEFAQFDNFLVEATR
Test: A Novel Cell-Based Assay to Identify Small Molecules for B -Galactocerebrosidase; also: 0% is about no effect; nearly all actives have a fitted effect of over 65% in size
Conditions: 145M-Twi-hGALC-G270D cells (Twitcher mouse brain line with human GALC G270D), HMU-beta-Gal fluorescence, 48 h; series mostly up to 57.5 µM; activation: at the top concentration
Method in brief: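 Brain-derived Twitcher mouse 145M-Twi cells stably expressing human GALC-G270D or wild-type GALC, treated live, then residual GALC activity read by fluorescence of HMU-b-Gal substrate (0.1 mM final) in citrate-phosphate buffer pH 5.2 with sodium taurocholate. Signal increase indicates enhancement.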

activation, inactive:
CCc1ccccc1NC(=O)Cc1c(C(=O)O)[nH]c2ccc(Cl)cc12 -11.5%, Cc1ccc(-n2c(=O)c3oc4ccccc4c3n(CC(=O)Nc3ccccc3)c2=O)cc1C -4.14%, Cc1cc(-n2c(C)nc3ccccc3c2=O)ccc1NC(=O)c1cccc([N+](=O)[O-])c1 -21.3%, Cc1cccc(NC(=O)CSc2cc(C)c3ccccc3n2)c1 -16.2%, O=C(NCCc1ccccc1)C(=O)Nc1cccc(Br)c1 -9.96%, Oc1c(C(c2ccccc2)N2CCN(c3ccccc3)CC2)sc2nc(-c3ccco3)nn12 (centres undefined) -18.3%, Cc1ccc(C(=O)COC(=O)CCC(=O)Nc2ccc(Oc3ccccc3)cc2)cc1C -9.43%, CO/N=C(\C(=O)O)c1csc(NC(=O)CCl)n1 -11.5%, Cn1c(CCNC(=O)c2ccco2)nc2cc(NC(=O)COc3ccc(Cl)cc3)ccc21 -0.278%, O=C(CSc1nc(=O)[nH]c2c1CCC2)NCc1ccccc1 -0.19%, COc1cccc(NC(=O)/C(C#N)=C\c2cn(Cc3ccc(Cl)cc3)c3ccccc23)c1 -24.1%, CCc1ccc(-c2nn(CC(=O)NC3CCCCC3)c3c2cnc2ccc(OC)cc23)cc1 -17.5%, COc1ccc(NC(=O)CSC2=Nc3ccccc3C3=NC(CC(=O)NCc4ccc(F)cc4)C(=O)N23)cc1 (centres undefined) -8.5%, COc1ccc(CC(=O)Nc2sc3c(c2C(=O)Nc2c(C)cccc2C)CCCCC3)cc1 -7.79%, Cc1ccc(Cl)cc1NC(=O)C(=O)NCCc1sc(-c2ccc(F)cc2)nc1C -8.9%, Cc1ccc(Cl)cc1N1CCN(C(=O)c2ccc(C)c(-n3c(C)nc4cccnc43)c2)CC1 -27.4%, CCc1nc2ccc(C(=O)N3CCN(c4ccc(Cl)cc4)CC3)cc2nc1CC -3%, CCCCc1ccc(C(=O)N/C(=C\c2ccc(C)cc2)C(=O)NC2CCCCC2)cc1 -18.4%, COc1ccc(CNC(=O)Cn2c(=O)oc3cc(S(=O)(=O)N4CCCC4)ccc32)cc1 -8.18%, CCCOc1ccc(C(=O)Nc2c(C(=O)c3ccc(C)cc3)oc3ccccc23)cc1 15.2%, Cc1cccc(S(=O)(=O)c2cn(Cc3ccccc3)c3cc(N4CCCCC4C)c(F)cc3c2=O)c1 (centres undefined) -21.4%, Cc1cccc(CNC(=O)c2ccc(Cn3c(=O)c4cccn4c4cccnc43)cc2)c1 -12.1%, COc1cccc(Nc2nc(-c3ccccc3)c3cc(C)ccc3n2)c1 -16.5%, O=C(CC1N=C2c3ccccc3N=C(SCc3ccccc3F)N2C1=O)NCc1cccs1 (centres undefined) -14.1%, Cc1ccc(NC(=O)C(Cc2ccccc2)NS(=O)(=O)c2cccc3nsnc23)c(C)c1 (centres undefined) -9.56%, CCN(CCCNC(=O)c1cc2cc3ccc(OC)cc3nc2s1)c1ccccc1 9.62%, CCCCNc1cc(C(=O)O)cc(S(N)(=O)=O)c1Oc1ccccc1 -16.4%, COc1cc(C2CC(=O)Nc3c2c(=O)nc2c(C)cccn32)cc(OC)c1OC (centres undefined) -15.4%, CC1CCCCN1S(=O)(=O)c1ccc2c(c1)oc(=O)n2CC(=O)Nc1ccc(Cl)cc1 (centres undefined) -8.82%, CCS(=O)(=O)N1CCc2cc(C(=O)Nc3cc(Cl)ccc3C)ccc21 -18.6%, Cc1nn2c(-c3cccc(NC(=O)c4ccc(Cl)cc4)c3)nnc2c2ccccc12 4.33%, CCN1CCC(N(Cc2ccc3c(c2)OCO3)C(=O)Nc2ccc(Br)c(C)c2)CC1 -4.72%, Cc1ccc(N2CCN(C(=O)c3cn(C)c4ccc(S(=O)(=O)N(C)C5CCCCC5)cc4c3=O)CC2C)cc1 (centres undefined) -9.78%, CCCCOCc1cc(CN2CCN(c3cccc(Cl)c3)CC2)c(O)c2ncccc12 -8.8%, COc1ccc(CCNC(=O)CCS(=O)(=O)c2ccc3c(c2)oc(=O)n3C)cc1OC -22.1%, CCn1c(=O)n(CC)c2cc(N3CCCCC3)c(NC(=O)Nc3cc(Cl)ccc3OC)cc21 -11.7%, CCOC(=O)c1c(C)[nH]c(CCC(=O)Nc2ccccc2C(=O)OC)c1C -11.2%, CC(C)C(=O)Nc1ccc2nc(SCCOc3ccccc3)sc2c1 -16.8%, COc1ccc(-n2c(-c3ccco3)nc3c(cnn3-c3ccc(C)cc3)c2=O)cc1 -8.23%, COCCCNC(=O)CCc1c(C)nc2cc(-c3ccc(Cl)cc3)nn2c1C -22.1%, CC(C)Cn1c(/C=C/c2ccc(F)cc2)nc2ccccc21 -3.54%, O=C(c1cccs1)N1CCCc2cc(NS(=O)(=O)c3ccc(F)cc3)ccc21 -35.8%, COc1ccccc1NC(=O)C1=C(C)Nc2nc(SCc3cc(C)ccc3C)nn2C1c1ccccc1 (centres undefined) -13.3%, CCOc1ccc(C(=O)N2CCN(Cc3cc(=O)n4nc(-c5ccccc5Cl)sc4n3)CC2)cc1 3.01%, CCOC(=O)[C@H](CCc1ccccc1)N[C@@H](C)C(=O)N(CC(=O)O)C1Cc2ccccc2C1 -16.5%, O=C(Nc1ccc2nn(-c3ccccc3)nc2c1)c1ccc(-c2cccc(Cl)c2)o1 -13%, CCOc1ccc(NS(=O)(=O)c2ccc(NC(=O)N3CCCC3)cc2)cc1 -13.5%, O=C(CSc1nnc(CNC(=O)c2c(F)cccc2Cl)o1)Nc1cccc(F)c1 -9.32%, CCn1c(C)c(C)c2cc(C(=O)NCCc3ccc(C)cc3)ccc21 -6.36%, O=C(c1ccc2c(=O)n(CCc3ccccc3)c(=O)[nH]c2c1)N1CCN(c2ccc(Cl)cc2)CC1 0.179%, CC[C@H](C)C(=O)O[C@H]1C[C@@H](C)C=C2C=C[C@H](C)[C@H](CC[C@@H]3C[C@@H](O)CC(=O)O3)[C@H]21 -5.57%, Cc1ccc(C)c(NC2=C(c3ccc(C(F)(F)F)cc3)C(=O)c3ccccc32)c1 -19.5%, COc1ccccc1C(=O)NCCc1csc(-c2ccc(C(F)(F)F)cc2)n1 -12.1%, COc1cc(NC(=O)Cn2c(=O)n(CC3CCCO3)c(=O)c3cc(OC)c(OC)cc32)cc(OC)c1 (centres undefined) -6.14%, CCc1ccc(C2CC(=O)N(c3cccc(C(F)(F)F)c3)C3=C2C(=O)OC3)cc1 (centres undefined) 0.314%, CCOCCc1nn2c(=O)cc(COC(=O)c3ccc(NC(=O)c4ccc(F)cc4)cc3)nc2s1 5.69%, Cc1cccc(Cn2nnc3c(=O)[nH]c(C4CCCN(C(=O)c5ccc(C(C)(C)C)cc5)C4)nc32)c1 (centres undefined) -16.7%, Clc1ccc(C(Cn2ccnc2)OCc2ccc(Sc3ccccc3)cc2)c(Cl)c1 (centres undefined) -7.43%, COc1ccc2c(CNC3CCC(C)CC3)c(C(=O)O)n(Cc3ccccc3)c2c1 (centres undefined) -0.683%
